# Laboratory results published in PubChem BioAssay (NCI).
# Where a structure was tested more than once in an assay, its records may differ in their call.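 Results are percent growth after 48 hours of single-concentration exposure. 100 means growth as in untreated cells, lower positive values show inhibition; negative values down to -100 show cell death.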 The source holds more than one record for some entries. The other results are left out here. How the source made its calls: active means growth percent below 10; inactive means the rest. An entry can have further records. This drug was run again and again over the years, at the concentration stated with the values; one value stands for one run. Marks such as (2×) stand for listed records that agree.
# Legend:
# Experiment in all cases: NCI-60 one-dose screen, 48 h (100 = growth as untreated, 0 = no growth, -100 = all killed)
# Details in all cases: 2.5 mM
# SK-OV-3 ovarian = test system: SK-OV-3 ovarian
# IGROV1 ovarian = test system: IGROV1 ovarian
# OVCAR-3 ovarian = test system: OVCAR-3 ovarian
structure (smiles),measurement,setting,value
O=c1[nH]cc(F)c(=O)[nH]1,growth,SK-OV-3 ovarian; runs of 1997,"inactive: 40.8, 21.4, 16.8, 26.8, 21.5, 28.3, 28.6, 13.6, 46.5, 51.4, 27.4, 44.4, 33.6, 30.9, 23, 15.2, 32.1, 20.6, 28 (2×), 14.7, 36.7, 31.1, 14.8, 34.4, 32.2, 35.6, 17.1, 41.5, 17.4, 22.9, 10.1, 32.7, 27.8% and active: -16.5, -12.2, -29.7, -2.24, -7.44, -18.5, -17.2, -0.332, -0.267%"
same,growth,SK-OV-3 ovarian; runs of 1998,"inactive: 18.6, 27.6, 19.8, 31.4, 39.6, 29.6 (2×), 17.7, 42.1 (2×), 25.5, 15.5, 19.2, 19.6, 44.1, 54.5, 33.5, 40.1, 35.9, 43.7, 36.4% and active: -36.7, -3.31, -1.06, -1.96%"
same,growth,SK-OV-3 ovarian; runs of 1999,"inactive: 39.4, 32, 13.3, 21.5, 40.5, 12.4% and active: 0.524, 7.11, 4.81, -0.347, 4.51, 7.49, 3.52, 6.08, -49.6, 2.47%"
same,growth,SK-OV-3 ovarian; runs of 2000,"active: 9.95, 4.78, 5.22, 3.72%"
same,growth,IGROV1 ovarian; runs of 1991,"active: 2.88, -14.8, -21.4, -23.4, -26.2, 1.63, -3.64, -56, 0.59, -42.1, 8.14, -17.3, -37.1, -12.5, 4.55, -70.4, -25.4% and inactive: 25.3%, 13.7%"
same,growth,IGROV1 ovarian; runs of 1992,"active: -5.17, 7.5, 1.56, 5.04, -67.4, -36.2, -12.4, -34, -43.3, 7.67, 7.04, 1.33, 9.6, -71.7, -82.2, -67.2, -39.8, 8.65, -21.7, -8.35, -20.8, 3.12, -6.08, -18.4, 0.492, 9.96, -55.3, 1.64, -79.3, -20.7, -23.4, -62.6, -65.8, -5.75, -12.8, 5.48, -25.8, -27.1, -22.5, -9.73, -9.01, 0.974, -29.8, -56.8, -65.9, -66.3, -10.9, -0.764, -1.69, 2.87, 0.647, 1.09, -33.7 (2×), -30, 7.78, -53.6, -26.4, -40, -13.7, -21.9, -31.9, -33.3, -6, 0.406, -3.7, -25, -34.5, -4.2, 2.46, -53.8, -49.1, -31.1, -36.7, -50.7, -66, -18.2, -35.1, 0.905, -25.3, -5.49, -39.7, 0.831, -33.1, -59.7, -48.6, -47.6, -2.98, -8.33, -20.2, -30.5, -23.6, -37.4, -3.22, -71.1, -20.9, -17.2, 1.03, -19.8, -47.9, -36.3, -5.81, -17.7, -19.9, 9.92, -53.4, -50.4, -23.7, 1.15, -50.5% and inactive: 13.9, 12.8, 29.6, 37, 18.3, 17.7, 10.1, 18%"
same,growth,IGROV1 ovarian; runs of 1993,"active: -27.2, 0.809, -27.7, -14.5, -40.7, -24.9, -23.5, -35.8, -27.4 (2×), -46.4, -1.29, -30.2, 6.41, -5.11, -17.7, -37.7, -40.8, 8.74, 1.27, -5.28, -3.74, -44.6, 4.64, -45.8, -2.03, -21.4, -18.3, -15.1, -46.2, -68.7, -37.4, -71.4, 0.199, 2.53, -20.5, -55.7, 9.32, -12.6, -64.3% and inactive: 20.5, 13.7, 24.4, 98.5, 30.1, 13.6%"
same,growth,IGROV1 ovarian; runs of 1994,"active: 6.85, -19.6, -20.3, -43.2, -55.6, -13.6, -27.1, -61.1, -32.8, 8.84, -48.9, 3.52, -19.3, 6.11, -3.09, 3.25, 4.75, -20, -19.2, -70.6, -8.96, 5.65, -7.29, -20.4, 5.42, 2.65, 7.23, 3.72, -4.73, 5.19, 0% and inactive: 34.4%, 13.9%, 13.8%"
same,growth,IGROV1 ovarian; runs of 1995,"active: 4.92, -65.6, -29.3, -35.2, -18.8 (2×), 7.82, -50, 1.31, 4.66, 5.33, -42.2, -6.81, 7.93, 2.05, -44.5, -77, -28.8, -47, -16.6, -4.42, -24.1, -14.5, -6.45, 6.94, -14.9, -26.5, -38.7, -4.29, -34.5, -42.7, -48.5, -21.8, -10.7, -24, -31.5% and inactive: 12.1%, 104%, 11.6%"
same,growth,IGROV1 ovarian; runs of 1996,"active: -21.3, -33.3 (2×), -19.4, 1.01, 0.816, -49.8, 4.34, -51.1, -13.2, -72.4, 8.54, -1.26, -7.78, -15, -36, 0.678, 5.09, -7.99, 7.36, 3.69, 3.34, 0.0921, 0.439, -11.2, -4.26, 6.81, -44.8, -20, -9.15, -1.72, -21.9, -41.3, 7.07, -9.41, 1.31, 6.85, -9.06, 8.79, 7.23, -8.36, 7.14, 7.81, 6.08, -8.85% and inactive: 12.5, 11.5, 11.7, 17, 10.2, 12.2, 19.6, 12.3, 21.8, 13.8, 13.2%"
same,growth,IGROV1 ovarian; runs of 1997,"inactive: 14.1, 15.4, 27.8, 32, 18.5, 17.9, 11.2, 19% and active: -16.4, -6.32, 8.06, 5.08, 0, 7.39, 7.87, -25, 9.37, 0.277, -0.236, 9.82, -36.6, 4.03, -15.5, -43.2, 3.66, -41.4, 3.1, -5.5, 3.57, -4.07, 5.14, -0.22, -1.24, -1.98, 1.01, -6.09%"
same,growth,IGROV1 ovarian; runs of 1998,"inactive: 10.7% (2×), 18.6%, 15.9% and active: 8.12, 7.28 (2×), 8.94, -10.9, -8.05, 3.4, 2.08 (2×), -19, 3.08, 0.853, -31.7, -4.88, 0.741, -25.8%"
same,growth,IGROV1 ovarian; runs of 1999,"inactive: 42.2% and active: -34.6, -51.1, -35.5, -33.5, -25.2, -100 (2×), -82.9, 0.0509, 3.18, 0.925, -93.7, -94.6, -63.8, 1.8, -14.5%"
same,growth,IGROV1 ovarian; runs of 2000,"active: -2.1, 1.6, -66.1, -72.3%"
same,growth,OVCAR-3 ovarian; runs of 1991,"active: -21.5, -34.3, -35.3, 2.84, -34.4, 9.41, -7.44, -3.16, -25.7, -11.7, -22.3, 0.81, -13.2, -14.3, -20.1, -22, -26.5, -45.1, -30.4% and inactive: 14.9%"
same,growth,OVCAR-3 ovarian; runs of 1992,"active: -13.1, -21.5 (2×), -15.7 (3×), -10.7, -29.9, -19.8, -6.53, -40.7, -20.6, -21.2, -13.5 (2×), 1.16, -26 (2×), -3.82, -14.9, -38.4, -35.1, 3.68, -20.8, -9.69, -18.5, -4.33, 5.9, -27.7, -35.5, -3.24, 3.16, -34.4, -38.1, -21.3, -36.2, -21.7 (2×), 2.7, -4.94, 1.87, -3.07, -10.8, -24.9, -38.2 (2×), -23.9, -32.1 (2×), 0.524, -45.1, -16.9 (3×), -1.28, -29, -20.2, -19.5 (2×), 8.05, -18.1 (2×), -17.1, -43.7, -18.9, -12.4, -11.5, -6.2, 1.05, 0.742, -44, -40, -14.8 (2×), -36.1, -7.41, -38.9, -43.4, -27, 1.86, -32, 0.761, -28.5, -30.2, -12.9, -36.7, -40.8, -48.5, -31.5, -35, -28.8, -37.3, -9.15, 7.27, -4.96, -39.2, -18.2, -37.7, -14, -34.9, -47.7, -29.8, -5.35% and inactive: 32.6, 10.4, 12.7 (2×), 24.5, 15.5, 16.9, 30.5, 12.9, 20.7, 14.7, 10.3, 13.7, 11.7, 17.2, 22.9%"
same,growth,OVCAR-3 ovarian; runs of 1993,"active: -6.53, 9.79, -17.1, -10, -49.9, -29.2, 6.69, -26, 9.37, -34.5, -37.1, 3.4, -54.4, -30.2, -38, -4.95, -45.9, -31.2, -42.4, 0.764, -29.7, -37.8, -40.8, -19.7, -46.1, -9.86, -37.4, 5.16, -10.6, -46, 3.5, -36.5, -52.7% and inactive: 20.1, 16.1, 37.3, 30.8, 10.4, 10.6, 125, 91.4, 32.2, 18.7, 27.8, 17.6%"
same,growth,OVCAR-3 ovarian; runs of 1994,"inactive: 10.8, 19.8, 46, 32, 13.9, 10.7, 19.9% and active: -0.879, -21.7, -9.35, -38.4, -35.6, -12.9, 1.83, -32.1, -29.4, 4.41, -17.8, -34.7, -43.3, 9.78, -94.4, -5.73, -32, 1.3, -68.7, -16.1, 6.29, 0.419, -0.885, -2.95, -28.9, -5.97%"
same,growth,OVCAR-3 ovarian; runs of 1995,"active: 4.34, -15.5, -0.285, -18.2, -16.6, -13.4, -28.8, 8.69, -12.9, -30.3, -2.44, 1.87, -3.07, -1.67, 8.06, 7.98, -17, -2.4, 4.5, -22.1, -7.36, 6.95, -15.1, 0.708, -47.2, -22.2, -49, -8.49, -35, -11.7% and inactive: 38, 18.2, 46.5, 26.3, 12.3, 21.8%"
same,growth,OVCAR-3 ovarian; runs of 1996,"inactive: 13.1, 19.8, 14.7, 25.4, 16.5, 36, 17.3, 13.8, 36.2, 12.2, 10.9, 15.2, 36.7, 37.4, 18.5% and active: 3.71, -18, 3.18, -26.5, -15.9, -11.1, -31.4, 5.29, -23, -29.1, -37.8, -23.8, -37.3, -12, -32.4, -15.6 (2×), -79.8, -37.5 (2×), -28.6, -20.1, -16.9, 0.233, 7.81, 8.25, 7.57, 8.05, -22.8, 3.52, -32.3, -28.9, -15.7, 1.49, 0.232, -26, -28.7, -25.9, -23.2, -32.8, -31.2%"
same,growth,OVCAR-3 ovarian; runs of 1997,"active: -12.2, -19.6, -32.5, -23.3, 4.68, -25, -61.4, -31.4 (2×), -8.04, -56.5, -7.09, 8.3, -26.5, 7.89, -34.6, -0.513, -31, -30.8, -3.27, -33.8, -34.7, -19.7, 1.5, -12.6, 0.0783, 3.57, -9.87, -9.97 (2×), -7.81, -7.66, -8.22, 3.19% and inactive: 31.4, 64, 20.8, 18.6, 17.5, 11.3, 21.3, 11.6, 20.7%"
same,growth,OVCAR-3 ovarian; runs of 1998,"active: -1.96, 5.7, -11.4, -0.368, 4.51, 9.34, -33.5, -31.9, 4.73, 7.42, -49.3, 3.86% and inactive: 22.5, 15.9, 23.2, 11.8, 29.2, 34.4, 22.4, 16.5, 32.5, 42.6%"
